Hit rate of the full screen: of about 46,000 compounds, about 60 (0.1%) were called active. Roughly 3% stayed inconclusive and do not appear here. Calls follow the shape of the dose curve; as a rule, active = well fitted inhibition curve with a large enough effect; inconclusive = small, poorly fitted or top-dose-only effect; inactive = no such curve, though single readings can be large or run the other way. The list shows a part of the results.
test: Primary qHTS assay for Inhibitors of ovarian cancer metastasis using an organotypic tumor microenvironment (TME) model.; also: nearly all actives have a fitted effect of over 65% in size;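 as to activity change, negative = inhibition: plate controls were DMSO wells for no effect and tomatine positive control wells for full effect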; settings: SKOV3ip1-GFP adhesion/invasion on 3D omental model, fluorescence; series mostly up to 45.8 µM; activity change, negative = inhibition: at the top concentration
How it was run: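 qHTS, 4-pt dose (0.36-46 umol/L); SKOV3ip1-GFP, 1,200 cells/well, no FBS; primary omental fibroblast/mesothelial co-culture 48 h pre-grown; 2 h RT + 16 h 37 C; PBS wash, 4% PFA; GFP count 488/509 nm.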

Activity change, negative = inhibition, inactive:
COc1ccc(C)cc1NC(=O)CSc1ccc(-c2ccccn2)nn1 -34.4%
CCOC(=O)c1ccc(OC(=O)CCCCCN=C(N)N)cc1 -0.314%
Cc1cccc(NC(=O)c2oc3ccccc3c2NC(=O)c2cc(=O)c3cc(Cl)ccc3o2)c1 -0.551%
Cc1ccc(S(=O)(=O)Nc2nc3n(n2)C(c2ccccc2Cl)C=C(c2ccccc2)N3)cc1 (stereo not drawn) 1.27%
COc1ccc(-c2nc(Cn3c(SCc4ccccc4F)nc4ccncc43)c(C)o2)cc1OC 3.28%
COc1cccc(CNC(=O)CN2C(=O)COc3ccc(S(=O)(=O)Nc4ccccc4)cc32)c1 -0.153%
O=C(CCS(=O)(=O)c1cc(Br)cc2c1N(C(=O)C1CC1)CC2)Nc1ccc(C(F)(F)F)cc1 -2.94%
COc1ccc(CNC(=O)C2CCN(C(=O)N3CC(C)Oc4ccc(C)cc43)CC2)cc1 (stereo not drawn) 1.7%
CN(Cc1ccccc1)C(=O)C1CCN(S(=O)(=O)c2ccc3nc4c(c(C(=O)O)c3c2)CCCC4)CC1 11.2%
Cn1c(=O)c2sccc2n2c(CCC(=O)NCc3ccccc3Cl)nnc12 21.9%
Cc1cc(C)cc(NC(=O)C2CCC(CNS(=O)(=O)c3ccc4c(c3)C(C)(C)C(=O)N4C)CC2)c1 (stereo not drawn) 19.5%
COc1ccc(CCNC(=O)c2c(C)oc3ncn(CC(C)C)c(=O)c23)cc1OC 20.9%
O=C(c1ccco1)N1CCN(c2nc3c(Cl)cccc3s2)CC1 5.88%
CCN(CC)S(=O)(=O)c1nnc(NC(=O)c2ccc(C(C)C)cc2)s1 9.21%
CC1CCN(c2ncnc3c2nnn3C)CC1 5.77%
O=C(Cn1c(=O)n(-c2ccc(Cl)cc2)c(=O)c2oc3ccccc3c21)Nc1ccccc1 -8.92%
Cc1cccc(N2CCN(CCCNC(=O)c3nnc(Cc4c(F)cccc4Cl)o3)CC2C)c1 (stereo not drawn) -4.87%
COc1ccc(C2=C(C)C(=O)N(Cc3ccc(C(=O)Nc4cc(C)ccc4C)cc3)S2(=O)=O)cc1 -5.08%
Cn1cnc(S(=O)(=O)N2CCC(C(=O)NCc3ccc(F)cc3)CC2)c1 10.6%
O=C(Cc1ccc(Cl)cc1)NCC(c1cccs1)S(=O)(=O)c1ccc(F)cc1 (stereo not drawn) 3.13%
COc1cccc(C(=O)Nc2ccc3nc(N4CCC(C)CC4)cc(C)c3c2)c1 4.13%
O=C(COC(=O)c1cccc(NC(=O)c2ccc(Br)cc2)c1)c1ccc(Br)cc1 -0.694%
Cc1nn2c(=O)cc(COC(=O)c3cccc(NC(=O)c4ccc(C(C)(C)C)cc4)c3)nc2s1 3.22%
COc1cc(NC(=O)Cn2nc(-c3ccc(C)c(C)c3)ccc2=O)cc(OC)c1 -0.327%
CCOC(=O)c1c(C)oc2nc(C)nc(NCCc3ccc(SC)cc3)c12 -0.747%
Cc1ccc(S(=O)(=O)c2nc(S(C)(=O)=O)sc2NCc2ccccc2)cc1 5.4%
COc1ccccc1N1CCN(c2nc3ccc(C)cc3n3nnnc23)CC1 2.15%
CC(C)NC(=O)c1ccccc1NC(=O)c1nsc2ccccc12 0.448%
CCN(CC)S(=O)(=O)c1ccc2c(c1)N(CC(=O)Nc1ccc(C)cc1C)C(=O)C1CCCN21 (stereo not drawn) -4.87%
COc1ccc(C2=CC(c3cccc(C)c3)n3nnnc3N2)cc1 (stereo not drawn) 5.59%
COc1ccc(C(=O)CCC(=O)Nc2ccc(OC)c(Cl)c2)cc1 2.48%
CCOC(=O)c1[nH]c2c(c1Cc1ccccc1OC)C(=O)CC(c1ccc(OCC)cc1)C2 (stereo not drawn) -11.4%
COc1ccc(S(=O)(=O)c2c(Nc3ccc(C)cc3)sc(C(=O)c3ccc4c(c3)OCO4)c2N)cc1 13.3%
Cc1cnc2c(c1SCC(=O)Nc1ccc(F)cc1F)c(=O)n(C)c(=O)n2C 2.82%
Cc1cc(F)ccc1NC(=O)C1CCCN(S(=O)(=O)c2ccc3c(c2)CCCC(=O)N3)C1 (stereo not drawn) 8.88%
COc1ccccc1CNC(=O)c1ccc(-c2nc(CS(=O)c3ccccc3)c(C)o2)cc1 (stereo not drawn) 8.46%
CCCCn1cc(S(=O)(=O)c2ccc(F)cc2)c(=O)c2ccccc21 -8.48%
Cc1ccc(Cl)cc1NC(=O)CN1C(=O)COc2ccc(S(=O)(=O)N3CCOCC3)cc21 -22.7%
CCc1cc2c(cc3c(=O)n(CC(=O)N4CCCCC4)ncn32)s1 8.79%
CCOc1ccc2nc(N3CCCC(C(=O)Nc4cccc(Cl)c4C)C3)sc2c1 (stereo not drawn) 4.17%
Cc1ccc(CN2CCNCC2)cc1NC(=O)CNc1ccc(F)c(F)c1 4.99%
Cc1ccc(-n2c(=O)c3ccc(C(=O)NCc4ccccc4Cl)cc3n(CC(=O)Nc3cccc(F)c3)c2=O)cc1 -22%
CCOc1ccc(N2C(=O)N(Cc3c(F)cccc3Cl)c3ccccc3S2(=O)=O)cc1 19.5%
Cc1ccc2[nH]c3c(=O)n(CC(=O)N4CCN(c5cccc(C(F)(F)F)c5)CC4)ncc3c2c1 33.5%
CN(C)c1ccc(CN(CC2CCCO2)C(=O)c2ccc(Br)cc2)cc1 (stereo not drawn) -7.38%
CCCCOc1ccc(NC(=O)Cn2nnnc2-c2ccccc2F)cc1 -0.216%
COc1cc2c(Nc3ccc(Cl)c(Cl)c3F)ncnc2cc1OCC1C[C@@H]2CN(C)C[C@H]2C1 -26%
O=C(COCc1cc(-c2cccs2)on1)Nc1ccc(OC(F)(F)F)cc1 -1.84%
O=S(=O)(O)CCSSCCS(=O)(=O)O 17.1%
COc1ccc2ncc3c(-c4ccc(C)c(C)c4)nn(CC(=O)NC4CCCCC4)c3c2c1 -7.58%
Cc1ccc(S(=O)(=O)c2nc(-c3ccco3)oc2SCC(C)C)cc1 -5.94%
COc1cc(OC)c(NC(=O)Cn2cnc3sc(C)c(S(=O)(=O)N4CCN(C)CC4)c3c2=O)cc1Cl -0.162%
CCc1ccc(NC(=O)c2nn(-c3ccc(C)cc3)c(=O)n(C)c2=O)cc1 2.11%
CCOc1ccc(Br)cc1CNCCSc1nnnn1-c1ccccc1 -21.1%
CCc1ccccc1NC(=O)CN1C(=O)c2cccnc2Oc2ccc(Cl)cc21 -21.5%
Cc1ccc(C)c(NC(=O)C(=O)NCCc2csc3nc(-c4ccccc4C)nn23)c1 -1.75%
CCOC(=O)c1oc2c(c1C)-c1nn(Cc3ccccc3Cl)cc1CC2 -9.56%
COc1ccc(CNC(=O)c2cc3c(s2)-c2c(C)cccc2OC3)cc1 -1.62%
CO[C@H]1C(=O)[C@]2(C)[C@@H](OC)C[C@H]3OC[C@@]3(OC(C)=O)[C@H]2[C@H](OC(=O)c2ccccc2)[C@]2(O)C[C@H](OC(=O)[C@H](O)[C@@H](NC(=O)OC(C)(C)C)c3ccccc3)C(C)=C1C2(C)C 7.55%
COC(=O)NCc1c(C)nn(-c2ccccc2)c1-n1cccc1 15.7%
CCN1CCN(Cc2c(O)ccc3c(C)c(-c4ccccc4)c(=O)oc23)CC1 0.902%
Cc1cccc(-n2ncc(C(=O)NCc3ccccn3)c2C2CCN(C(=O)OC(C)(C)C)CC2)c1 -10.5%
CNC(=O)c1sc2ncccc2c1-n1cccc1 -16.1%
CCCS(=O)(=O)N1CC(=O)N(c2ccccc2C)C(C)(C(=O)NC2CCCC2)C1 (stereo not drawn) 4.31%
COc1ccc(NC(=O)CC2C(=O)N(c3ccc(C)cc3)C(=O)N2Cc2cccnc2)cc1 (stereo not drawn) 17.3%
CCOC(=O)N1CCC2(CC1)OC(=O)C(C)=C2C(=O)NCc1cccc(OC)c1 11.4%
Cc1cc(NC(=O)Cn2nc(C)n3cccc3c2=O)ccc1Br 6.19%
Cc1ccc(NC(=O)Cn2c(=O)n(CCC(=O)NCc3ccc4c(c3)OCO4)c(=O)c3sccc32)c(C)c1 -20.7%
Cc1ccc(NC(=O)C(c2ccccc2)N2Cc3ccccc3C2=O)cc1Cl (stereo not drawn) 7.05%
Cc1ccc(C)c(N2CCN(c3nc4ccccc4n4c(C)nnc34)CC2)c1 -0.026%
COc1ccccc1Nc1nn2c(=O)c3ccc(C(=O)NCc4ccc(F)cc4)cc3nc2s1 -13.5%
O=C(NCCc1ccccc1)C(=O)NCC(c1cccnc1)N1CCN(c2ccccc2F)CC1 (stereo not drawn) 9.57%
COc1ccc(C(=O)Nc2ccc(-c3cc4ccccc4oc3=O)c(C)c2)cc1OC 0.0988%
CCc1cccc2c(-c3ccc(F)cc3)nc(SCC(=O)Nc3ccccc3)nc12 -0.654%
Cc1ccc(CNC(=O)C(=O)NCC(c2ccco2)S(=O)(=O)c2cccs2)cc1 (stereo not drawn) 17%
COc1ccc(CCNC(=O)c2ccc(CS(=O)(=O)Cc3cccc(C)c3)o2)cc1OC -4.03%

outcome, inactive:
O=C(Nc1ccc(Cl)cc1)c1cc(S(=O)(=O)N2CCc3ccccc32)ccc1F
CCn1cc(C(=O)NCCc2ccc(C)cc2)c(=O)c2cc(S(=O)(=O)N3CCCCC3)ccc21
CCOc1ccc(C(=O)Nc2cc(-c3cn4cccnc4n3)ccc2C)cc1OCC
COc1cccc(C(=O)Nc2ccccc2-c2nnc(-c3cc(OC)ccc3Br)o2)c1
CCCCN(CCCC)CCNC(=O)c1cc(-c2cccnc2)nc2ccc(S(=O)(=O)N3CCC(C)CC3)cc12
O=C(Cc1ccc(NC(=O)N2CCCCc3ccccc32)cc1)NCc1ccccc1
Cc1ccc2[nH]c(CSc3nnc(COc4ccccc4C)n3C)cc(=O)c2c1
COc1cccc(CNC(=O)CN2C(=O)CSc3c2c(C)nn3-c2ccccc2)c1
Cc1cc2c(cc1C)NC(CC(=O)Nc1ccccc1SC(F)(F)F)C(=O)N2 (stereo not drawn)
CC(C)(C)OC(=O)N1CCC(c2c(C(=O)Nc3ccc4c(c3)OCCO4)cnn2-c2ccccc2)CC1
CCCCN1C(=O)CN(C2CCCCC2)C(=O)C1c1ccc(OC(C)C)c(OC)c1 (stereo not drawn)
Cn1c(=O)n(-c2cccc(Cl)c2)c(=O)c2sc3ccccc3c21
O=C(CSc1nc2c(c(=O)[nH]1)CCCC2)Nc1ccc(Br)cc1
COc1ccc(CNc2cc(-c3ccc(OC)cc3)nc3nncn23)cc1
COc1ccc(NC(=O)c2c(C)oc3ccc(O)c(CN4CCC(C)CC4)c23)cc1
CC(C)CCNC(=O)C1CCN(C(=O)N2CCOc3ccc(Cl)cc32)CC1
CCN1CCN(C(c2ccc(F)cc2)c2c(O)cc(C)n(CCOC)c2=O)CC1 (stereo not drawn)
